# Test results reported in article PMC4336329 (PLoS ONE, 2015).
# Screen size: about 310,000 compounds; about 14,000 (4.5%) showed an effect of 50% or more. Effects have a minus sign here. Some of the results follow.
# Molecular target: human ether-à-go-go-related gene (hERG) potassium channel (human, UniProt Q12809)
# Assay: primary screen, population patch clamp on CHO cells stably expressing hERG
# 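Note: peak tail current of the secondary pulse compared with the same well before compound.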
# human ether-à-go-go-related gene (hERG) potassium channel, sequence (Q12809 whole entry, looked up): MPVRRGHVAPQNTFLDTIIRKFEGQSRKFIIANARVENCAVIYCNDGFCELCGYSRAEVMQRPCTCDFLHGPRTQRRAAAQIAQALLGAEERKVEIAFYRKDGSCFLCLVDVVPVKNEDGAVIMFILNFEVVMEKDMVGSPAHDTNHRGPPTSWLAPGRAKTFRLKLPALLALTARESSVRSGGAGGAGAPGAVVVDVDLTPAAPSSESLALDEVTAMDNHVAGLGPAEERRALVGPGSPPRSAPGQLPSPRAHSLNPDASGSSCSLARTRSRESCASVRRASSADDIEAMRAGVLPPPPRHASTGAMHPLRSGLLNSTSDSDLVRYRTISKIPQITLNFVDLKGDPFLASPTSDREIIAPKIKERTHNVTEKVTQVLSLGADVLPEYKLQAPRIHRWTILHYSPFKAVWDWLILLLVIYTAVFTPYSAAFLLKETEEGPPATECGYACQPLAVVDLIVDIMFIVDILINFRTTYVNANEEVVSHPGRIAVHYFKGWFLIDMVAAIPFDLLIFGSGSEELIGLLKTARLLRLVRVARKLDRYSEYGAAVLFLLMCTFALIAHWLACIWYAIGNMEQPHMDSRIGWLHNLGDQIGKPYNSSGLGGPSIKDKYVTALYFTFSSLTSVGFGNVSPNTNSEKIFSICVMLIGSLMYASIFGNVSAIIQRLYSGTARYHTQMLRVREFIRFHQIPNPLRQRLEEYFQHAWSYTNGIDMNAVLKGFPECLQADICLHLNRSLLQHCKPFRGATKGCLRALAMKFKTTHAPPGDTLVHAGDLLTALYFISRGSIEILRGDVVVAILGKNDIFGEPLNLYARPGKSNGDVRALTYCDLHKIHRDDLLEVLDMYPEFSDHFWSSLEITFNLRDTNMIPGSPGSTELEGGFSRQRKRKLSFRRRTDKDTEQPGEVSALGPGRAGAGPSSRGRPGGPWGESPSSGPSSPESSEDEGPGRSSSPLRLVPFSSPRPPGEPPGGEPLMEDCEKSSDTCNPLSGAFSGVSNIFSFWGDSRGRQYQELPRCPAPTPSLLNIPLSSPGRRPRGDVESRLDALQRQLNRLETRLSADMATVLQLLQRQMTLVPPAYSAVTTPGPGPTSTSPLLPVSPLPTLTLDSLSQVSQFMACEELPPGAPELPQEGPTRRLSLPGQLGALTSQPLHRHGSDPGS
row,Compound,"hERG current change (%, negative = inhibition) at 10uM [%]"
1,CC(C(=O)c1ccccc1)n1c(N2CCOCC2)nc2c1c(=O)n(C)c(=O)n2C (centres unmarked),7.89
2,Cc1ccc2c(CN3CCN(C(=O)c4ccco4)CC3)cc(=O)oc2c1C,-48.6
3,CCSc1nnc(NC(=O)c2csc3c2CCC(C)C3)s1 (centres unmarked),-8.63
4,CN(CCCN1CCOCC1)C(=O)c1ccc2nc(Cc3cccc(Cl)c3)oc2c1,-6.26
5,CCc1nnc(NC(=O)C(CC)c2ccccc2)s1 (centres unmarked),-3.53
6,O=S(=O)(NC1CC1)c1ccc(S(=O)(=O)N2CCCc3ccccc32)cc1,-12.3
7,N#Cc1ccc(/C=C\c2nccc3c2[nH]c2ccccc23)cc1,-3.5
8,Cc1c(N2C(=O)C3C4C=CC(C5CC45)C3C2=O)c(=O)n(-c2ccccc2)n1C (centres unmarked),3.84
9,CC(C)c1ccc(N(C(=O)c2cc3ccccc3oc2=O)C2C=CS(=O)(=O)C2)cc1 (centres unmarked),-4
10,CN(C(=O)COC(=O)c1cc([N+](=O)[O-])ccc1N1CCCC1)C1CCS(=O)(=O)C1 (centres unmarked),19.1
11,N#C/C(=C/c1ccc(C(=O)O)cc1)C(=O)Nc1ccccc1,21.1
12,CC(/C=N/n1c(-c2ccccn2)n[nH]c1=S)=C\c1ccccc1,-16.7
13,CCN(CC(=O)Nc1ccc2c(c1)OCCO2)Cc1cc(=O)oc2c(C)c(C)ccc12,-40.3
14,CC(C)(C)C(=O)Nc1nnc(SCC(=O)NC2CCCCC2)s1,2.34
15,CC[n+]1c(C)sc2c3ccsc3ccc21.[I-],6.06
16,O=[N+]([O-])c1cccc(S(=O)(=O)Nc2ccc(-c3ccc(N4CCCC4)nn3)cc2)c1,13.2
17,FC(F)(F)c1nnc2ccc(NCn3nnc4ccccc43)nn12,-0.567
18,CC1CC(C)(C)NC(=S)N1CCCC(=O)NCCc1ccc(Cl)cc1 (centres unmarked),4.25
19,CCOC(=O)Cn1c(N)c(C(=O)OC)sc1=S,7.28

row,Compound,"hERG current change (%, negative = inhibition) at 10uM [%]"
1,O=C(NCCN1CCOCC1)c1ccc(=O)n(Cc2ccc(Cl)cc2)c1,10.2
2,O=C(CC(c1ccccc1)c1ccccc1)N1CCN(c2ccccn2)CC1,-53.4
3,Cc1nc2ccccn2c1C(=O)N/N=C/c1cc(C)n(-c2ccc(Cl)cc2)c1C,-13
4,CCCOc1ccc2c(=O)c(N3C(=O)c4ccccc4C3=O)c(C)oc2c1,-41.3
5,Br.COc1ccc(CNCc2ccc(F)cc2)c(OC)c1,-79
6,CC(=O)c1ccc(NC(=O)c2noc3c2CCC3)cc1,2.68
7,CCCCC(=O)Nc1ccc(C(N)=O)cc1,13.8
8,O=C(NCc1ccco1)c1cc(=O)c2ccccc2o1,10.9
9,COc1cccc(NC(=O)c2ccccc2N(Cc2ccccc2)S(C)(=O)=O)c1,-22
10,CC[N+](CC)(CC#Cc1ccccc1)CC#Cc1ccccc1.[Br-],-69.8
11,O=C(Nc1ccon1)c1ccc(N2CCCCC2)c([N+](=O)[O-])c1,15.4
12,COc1ccc(C(=O)N(C)C2CCCCC2)cc1OC1CCN(C(C)C)CC1,-14.9
13,O=C(NCCO)/C(=C\c1ccco1)NC(=O)c1cccs1,21.1
14,Cc1ccc(NC(=O)COC(=O)CN2C(=O)COc3ccccc32)cc1,7.52
15,COc1cc2c(cc1OC)C1(Nc3c-2c(-c2ccccc2)nn3-c2ccccc2)C(=O)Nc2ccccc21 (centres unmarked),10.2
16,O=C(NCc1nc2ccccc2[nH]1)C1=C[C@@H](c2ccc(Br)cc2)C[C@@H](OCc2ccc(CO)cc2)O1,-32.4
17,COc1ccc(C(CC(=O)O)N2Cc3ccccc3C2=O)cc1OC (centres unmarked),19.8
18,Oc1ccccc1OCCOc1ccccc1OCCOc1ccccc1O,0.0544
19,Cc1ccc(NC2CCCN(C(=O)Cc3nonc3C)C2)cc1C (centres unmarked),14.5

row,Compound,"hERG current change (%, negative = inhibition) at 10uM [%]"
1,COc1ccc(NC(=O)CCNS(=O)(=O)c2cccc3nsnc23)cc1,0.074
2,CCCCOC(=O)CCCc1ccc([N+](=O)[O-])cc1[N+](=O)[O-],-52
3,CN(C)/C=C/C(=O)c1ccc(Cl)cc1Cl,6.47
4,CCOC(=O)COc1coc(CN2CCN(c3ccccc3)CC2)cc1=O,9.43
5,CC1CC(=O)C2=C(C1)Nc1ccccc1SC2c1ccc(F)cc1 (centres unmarked),-0.969
6,CCn1c(/C=N/c2nc3ccccc3n2C)nc2ccccc21,-4.66
7,O=C(OCCNC(=O)c1ccc2ccccc2n1)c1cccnc1,-3.97
8,Cc1cc(-c2csc(NC(=O)c3ccccc3C(F)(F)F)n2)c(C)n1Cc1ccccc1,16.7
9,O=C(NCCc1ccccc1)c1ccc(NCC2CCCO2)c([N+](=O)[O-])c1 (centres unmarked),-68.9
10,CC(=O)c1cccc(NC(=O)CC2S/C(=N/N=C/c3ccccc3)NC2=O)c1 (centres unmarked),0.15
11,Cc1ccc2[nH]c(=O)c3cc(C(=O)N(CCCOC(C)C)Cc4ccco4)sc3c2c1,-4.27
12,CCOC(=O)c1cnc(SCc2cccc3ccccc23)nc1N,-17.4
13,O=C(COc1ncnc2sccc12)N1CCN(S(=O)(=O)c2ccc(Cl)cc2)CC1,-15.4
14,COc1ccccc1C(=O)NC(=O)COC(=O)Cc1ccc(F)cc1,9.62
15,Cc1cc(C(=O)N(C)CC(=O)Nc2cccc(F)c2)no1,14
16,CCC1CCCCN1C(=O)Cn1c(C(=O)OC)cc2ccsc21 (centres unmarked),-0.484
17,NC(=O)Cn1cc(C(=O)c2ccccc2)c2ccccc21,8.54
18,Cc1ccc(/C=N/NC(=S)N2CCOCC2)cc1,2.28
